Measurements: patent publication US20080311122A1, “Antagonists of Hmgb1 and/or Rage and Methods of Use Thereof” (Medimmune, LLC, priority 2005, published 2008)

Key:
[1] = target: T1, HMG2 (Bos taurus, UniProt P40673); assay: Binding to HMG1 vs. HMG2 ELISA; set-up: species or system calf; details: immobilized antigen
T1 construct: from tissue; host or cells: calf thymus (as read from the sentence)
T1 sequence (P40673 1-209): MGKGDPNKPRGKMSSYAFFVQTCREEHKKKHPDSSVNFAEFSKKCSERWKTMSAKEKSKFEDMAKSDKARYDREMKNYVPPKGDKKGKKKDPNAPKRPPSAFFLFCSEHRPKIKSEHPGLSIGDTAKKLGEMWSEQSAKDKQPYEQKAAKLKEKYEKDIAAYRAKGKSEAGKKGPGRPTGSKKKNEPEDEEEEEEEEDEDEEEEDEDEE
Protocol: Binding to HMG1 vs. HMG2: Ultra high-binding ELISA plates (ThermoLab systems, #3855) were coated with either 5 ug/mL of Calf thymus HMGB1 or HMBG2 diluted in 10 mM Phosphate buffered saline (PBS), pH 7.2 and incubate overnight at 4 degrees. The plates were washed twice with Ca and Mg free PBS and 100 microliters of anti-HMGB1 antibody diluted in 10 mM PBS, pH 7.2+1% bovine serum albumin (BSA) to a final concentration of 10 ug/mL was added to each well and the plates were incubated 1 hour at room temperature. The wells were washed three times with 100 μl of PBS, pH 7.2. HRP labeled goat-anti-human IgG Kappa-chain (KPL, #14-10-10) and goat-anti-human IgG Lambda-chain (KPL, #14-10-11) were diluted in 10 mM PBS+1% BSA 1:1000 and 100 μl were added to each well and incubated for 1 hour at room temperature. The wells were then washed three times with 100 μl of PBS, pH 7.2. OPD substrate (Pierce chemical company, #34006) was prepared following the manufacturers instructions and 100 μl of prepared substrate was added to each well and the plates incubated at room temperature in the dark for 20-30 minutes. The reaction was stopped with the addition of 100 μl of 2M H2SO4, and the plates read on a plate reader at a wavelength of 490 nm.

[2] = target: T2, recombinant HMG1 binding to RAGE-Fc (Homo sapiens, UniProt P09429); assay: HMG1 binding to RAGE-Ig by ELISA; details: at the concentrations tested
T2 construct: made in house; host or cells: E. coli (HMG1)
T2 sequence (P09429 1-215): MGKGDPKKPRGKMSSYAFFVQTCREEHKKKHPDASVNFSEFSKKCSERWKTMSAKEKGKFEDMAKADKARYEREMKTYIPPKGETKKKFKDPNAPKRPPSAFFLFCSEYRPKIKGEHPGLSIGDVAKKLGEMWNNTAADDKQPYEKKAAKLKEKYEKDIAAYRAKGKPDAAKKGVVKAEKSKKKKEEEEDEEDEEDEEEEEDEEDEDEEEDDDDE
Protocol: HMG1 binding to RAGE-Ig by ELISA: 50 μl/well of RAGE-Fc fusion protein at 5 μg/ml in PBS was added to each well of an ELISA plate and incubated overnight at 4° C. The plate was then blocked with 200 μl of 5% milk at 37° C. for 1 hr and washed 3× with PBS/Tween. 50 μl/well of diluted HMGB1 solution. For dose curves, HMGB1 concentrations started at 4 ug/ml in PBS. For antibody blocking the HMGB1 was preincubated in another plate with human anti-HMG1 antibodies or buffer, then transferred to the RAGE-coated plate. The plates were then incubated at room temperature for 2 hours and washed 3×. To detect any HMG1 bound to the immobilized RAGE-Fc a mixture of biotinylated mouse anti-HMG1 mAbs (10D4, 4H11, 3E10 and 5C12) each at 1 ug/ml, total Ab: 4 ug/ml, were added to each well and the plate was incubated for 1 hour at room temperature. The plate was then washed and Strepavidin-HPR was added to each well and incubated 15 min. The plate was then washed 3× and blotted dry. 100 μl of TMB developing agent was added and the plate read at 650 nm. Values were calculated as percent of inhibition with HMG1 alone equal to 0% inhibition. The data in FIG. 9 and summarized in Table 1 represent the average of two separate experiments.

[3] = target: T3, HMGB-1 (Homo sapiens, UniProt P09429); assay: Antibody HMG1 binding competition via BIAcore analysis
T3 sequence (P09429 1-215): T2 sequence (P09429 1-215)
Protocol: Antibody HMG1 Binding Competition via BIAcore Analysis: All experiments were performed on a BIAcore 3000 instrument (BIAcore, Inc., Piscataway, N.J.). The HMGB-1 protein was immobilized onto a CM5 sensor using a standard amine coupling chemistry protocol, as described in the BIAcore Handbook (BIAcore, Inc., Piscataway, N.J.). Briefly, the CM5 surface subject to the NHS/EDC activation. After activation a HMGB-1 was injected over the surface at a concentration of 100 nM or 200 nM (in 10 mM NaOAc, pH4) to a surface density of between 1100 and 1200 RU's. Following this, unreacted sites on the sensor chip surface were “capped” with an injection of 1M ethanolamine. For reference purposes, a blank flow cell was also prepared, utilizing this same procedure that was used to immobilize HMGB-1, but without any ligand.
MAbs G2, G4, G9, S6 and Synagis were prepared at 1 uM and 2 uM. All mAb solutions were prepared in HBS-EP buffer (BIAcore, Inc., Piscataway, N.J.). Each cycle started with a 100 μL injection of the first mAb, injected at 1 μM, followed by a second 100 μL injection of a 1:1 mixture of two, 2× concentration mAbs, such that the final concentration of each component mAb in the mixture is equivalent to the first injection. […]
Once the entire set had been collected, the maximum RU responses for each mAb after each injection cycle was recorded. […]

[4] = Isoelectric focusing gel electrophoresis; type: physicochemical
Protocol: Isoelectric Focusing Gel Electrophoresis: Isoelectric points were determined using a Pharmacia Biotech Multiphor 2 electrophoresis system with a multi temp 3 refrigerated bath recirculation unit and an EPS 3501 XL power supply. Pre-cast ampholine gels (Amersham Biosciences, pI range 2.5-10) were loaded with 5 μg of protein. Broad range pI marker standards (Amersham, pI range 3-10, 8 μL) were used to determine relative pI for the Mabs. Electrophoresis was performed at 1500 V, 50 mA for 105 minutes. The gel was fixed using a Sigma fixing solution (5×) diluted with purified water to 1×. Staining was performed overnight at room temperature using Simply Blue stain (Invitrogen). Destaining was carried out with a solution that consisted of 25% ethanol, 8% acetic acid and 67% purified water. Isoelectric points were determined using a Bio-Rad Densitometer relative to calibration curves of the standards.

relative binding to HMG1 and HMG2 [1]: specific for HMG1
B1: S2: human anti-HMG1 antibody, ATCC PTA-6142; VL/VH aa SEQ ID NO: 5/7 (antibody, listed as Homo sapiens, V domains shown)
VH: EVQLLESGGGLVQPGGSLRLSCAASGFTFSGYMMVWVRQAPGKGLEWVSRISPSGGQTGYADSVKGRFTISRDNSKNTLYLQMNSLRAEDTAVYYCAREEGGSYGAFDIWGQGTMVTVSS
VL: [gap - about 100 residues]FGQGTKVEIK
block of recombinant HMG1 binding to RAGE [2]: significant ability to block the binding of HMG1 to RAGE
binding sites on HMGB1 by BIAcore competition [3]: bind to either the same site or sites that are highly related perhaps overlapping
PI [4]: 8.53
